The values that follow come from article PMC12820563, “FoxP3 forms a head-to-head dimer in vivo and stabilizes its multimerization on adjacent microsatellites”.

Some of the results follow.

The target in the test is T1, MBP-FoxP1dN (Mus musculus, UniProt P58462 326-579).
T1 sequence: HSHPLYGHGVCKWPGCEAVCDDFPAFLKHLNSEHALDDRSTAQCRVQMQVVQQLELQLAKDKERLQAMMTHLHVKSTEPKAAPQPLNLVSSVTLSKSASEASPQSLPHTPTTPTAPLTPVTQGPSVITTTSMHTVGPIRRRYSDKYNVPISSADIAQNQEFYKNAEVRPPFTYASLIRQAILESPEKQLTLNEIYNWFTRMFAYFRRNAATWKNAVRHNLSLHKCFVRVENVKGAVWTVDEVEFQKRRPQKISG
Briefly: PD-seq (MBP pull-down with sequencing); 20 mM Tris-HCl pH 7.5, 100 mM NaCl, 1.5 mM MgCl2, 0.4 uM protein, 0.1 uM dsDNA library, 30 min, room temperature, amylose pull-down; high values mean tight binding. The conditions noted are these: protein: recombinant; tags: His6-MBP; chain copies: 2; dsDNA, one strand shown. In short, it runs like this:
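A degenerate double-stranded DNA library, filled in with Klenow, was added at 0.1 µM to 0.4 µM His6-MBP-tagged mouse FoxP3 or FoxP1 fragment lacking the N-terminus, expressed in E. coli. Incubation lasted 30 min at room temperature in Tris pH 7.5 buffer with NaCl and MgCl2, after which complexes were collected on amylose resin, washed three times, digested with proteinase K to free the DNA, barcoded by PCR and sequenced by Illumina. Binding is the pooled-replicate reads-per-million enrichment of pull-down over input.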
For “GATGATTGTTCTCCCAGCTGATGAATTACCGCGCTCGAGTAAACAAATTTTCCTAATCTTTCTGTTCAAGCGCCATCTAC”, the binding signal is 0.948 RPM ratio (pull-down/input).
Under “GATGATTGTTCTCCCAGCTGATGAATTACTATTTTCGAGTAAACAAATTTTCCTAATCTTTCTGTTCAAGCGCCATCTAC” stands 2.29 RPM ratio (pull-down/input); under “GATGATTGTTCTCCCAGCTGATGAATTCTGTTGTTCGAGTAAACAAATTTTCCTAATCTTTCTGTTCAAGCGCCATCTAC”, 2.6 RPM ratio (pull-down/input).
Turning to “GATGATTGTTCTCCCAGCTGATGAATTGAACGTTTCGAGTAAACAAATTTTCCTAATCTTTCTGTTCAAGCGCCATCTAC”, the binding signal is 0.869 RPM ratio (pull-down/input).
Under “GATGATTGTTCTCCCAGCTGATGAATTAAGATCATCGAGTAAACAAATTTTCCTAATCTTTCTGTTCAAGCGCCATCTAC” stands 0.95 RPM ratio (pull-down/input).
With “GATGATTGTTCTCCCAGCTGATGAATTATAATAGTCGAGTAAACAAATTTTCCTAATCTTTCTGTTCAAGCGCCATCTAC” the figure was 0.964 RPM ratio (pull-down/input); with “GATGATTGTTCTCCCAGCTGATGAATTACCTTGATCGAGTAAACAAATTTTCCTAATCTTTCTGTTCAAGCGCCATCTAC”, 0.961 RPM ratio (pull-down/input); with “GATGATTGTTCTCCCAGCTGATGAATTCTATTGGTCGAGTAAACAAATTTTCCTAATCTTTCTGTTCAAGCGCCATCTAC”, 1.41 RPM ratio (pull-down/input).
“GATGATTGTTCTCCCAGCTGATGAATTAACAGTCTCGAGTAAACAAATTTTCCTAATCTTTCTGTTCAAGCGCCATCTAC”: the binding signal was 0.897 RPM ratio (pull-down/input).
In the case of “GATGATTGTTCTCCCAGCTGATGAATTCATAACTTCGAGTAAACAAATTTTCCTAATCTTTCTGTTCAAGCGCCATCTAC”, the binding signal is 0.954 RPM ratio (pull-down/input).
With “GATGATTGTTCTCCCAGCTGATGAATTAAGGTCGTCGAGTAAACAAATTTTCCTAATCTTTCTGTTCAAGCGCCATCTAC”, the binding signal was 0.883 RPM ratio (pull-down/input).
Under “GATGATTGTTCTCCCAGCTGATGAATTGTGATCATCGAGTAAACAAATTTTCCTAATCTTTCTGTTCAAGCGCCATCTAC” stands 1.28 RPM ratio (pull-down/input); under “GATGATTGTTCTCCCAGCTGATGAATTGAAGGCCTCGAGTAAACAAATTTTCCTAATCTTTCTGTTCAAGCGCCATCTAC”, 0.872 RPM ratio (pull-down/input).
With “GATGATTGTTCTCCCAGCTGATGAATTCATCTGGTCGAGTAAACAAATTTTCCTAATCTTTCTGTTCAAGCGCCATCTAC” the figure was 0.892 RPM ratio (pull-down/input).
Consider “GATGATTGTTCTCCCAGCTGATGAATTATTCAGCTCGAGTAAACAAATTTTCCTAATCTTTCTGTTCAAGCGCCATCTAC”, for which the binding signal is 0.962 RPM ratio (pull-down/input).
With “GATGATTGTTCTCCCAGCTGATGAATTGTCTAGCTCGAGTAAACAAATTTTCCTAATCTTTCTGTTCAAGCGCCATCTAC”, the binding signal was 0.969 RPM ratio (pull-down/input).
Consider “GATGATTGTTCTCCCAGCTGATGAATTATAGTCGTCGAGTAAACAAATTTTCCTAATCTTTCTGTTCAAGCGCCATCTAC”, for which the binding signal is 0.926 RPM ratio (pull-down/input).
Under “GATGATTGTTCTCCCAGCTGATGAATTTTGGGGGTCGAGTAAACAAATTTTCCTAATCTTTCTGTTCAAGCGCCATCTAC” stands 0.764 RPM ratio (pull-down/input).
